Assay results from PubChem BioAssay AID485344 (National Center for Advancing Translational Sciences (NCATS), 2010).
Among all 340,000 compounds or so, about 6,900 (2%) were called active. Rule as the data show it: active = inhibition above about 30%; inactive = below that, where a call was filed. This is a selection; strong and weak results do not stand in their true shares. Where no call is shown, the source filed none.

biological target: D(2) dopamine receptor (Homo sapiens) (UniProt P14416); assay: HTS Assay for Allosteric Antagonists of the Human D2 Dopamine Receptor: Primary Screen for Antagonists; settings: HEK293 TREx D2 cells, calcium flux, dopamine EC80; at 10 µM; stronger effect = higher value; also: 0% is about no effect
UniProt P14416, sequence (P14416 whole entry, looked up): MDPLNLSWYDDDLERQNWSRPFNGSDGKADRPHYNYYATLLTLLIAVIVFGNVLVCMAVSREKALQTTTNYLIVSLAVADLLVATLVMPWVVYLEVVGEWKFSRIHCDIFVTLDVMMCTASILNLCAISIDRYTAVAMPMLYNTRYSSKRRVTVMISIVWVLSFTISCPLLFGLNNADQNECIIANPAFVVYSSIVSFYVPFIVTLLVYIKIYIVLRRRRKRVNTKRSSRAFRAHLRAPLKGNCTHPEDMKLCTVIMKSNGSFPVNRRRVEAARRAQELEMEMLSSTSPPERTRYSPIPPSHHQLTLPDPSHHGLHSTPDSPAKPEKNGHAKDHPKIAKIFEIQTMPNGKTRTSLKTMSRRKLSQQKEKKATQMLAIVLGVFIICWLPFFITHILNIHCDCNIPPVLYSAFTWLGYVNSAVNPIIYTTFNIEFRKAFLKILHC
Outline: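 Tetracycline-induced HEK293 T-REx cells expressing D2 force-coupled to calcium signalling were dye-loaded, exposed to compound for 180 s, then challenged with an EC80 of dopamine; calcium flux was followed kinetically for a further 180 s.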

Going from COCCCNC(=O)Cn1c(=O)n(-c2ccc(Cl)cc2)c(=O)c2c3c(sc21)CCCCC3 to CCOc1ccc(CCNC(=O)Cn2ccc3cc(S(=O)(=O)N4CCCCC4)ccc32)cc1, the inhibition falls from 10.8% to 0.493%.

Compared with COc1ccc(CCNC(=O)CN2C(=O)COc3ccc(S(=O)(=O)N4CCCCCC4)cc32)cc1OC, CC(=O)c1ccc(NC(=O)CN2C(=O)CCc3cc(S(=O)(=O)N4CCC(C)CC4)ccc32)cc1 is lower in inhibition: 3.83% for the first, 0.924% for the second.

First: Cc1ccc(OCC(=O)Nc2ccccc2C(=O)OCc2cc(=O)n3c(C)csc3n2)cc1
Second: CCOC(=O)c1ccccc1NC(=O)c1cnn(-c2ccc(OC)cc2)c1C1CCN(C(=O)OC(C)(C)C)CC1
The inhibition of the first is higher: 13.2% for the first, 2.87% for the second.

Compared with Cc1ccc(-c2nnc3ccccc3c2C(=O)Nc2cccc(C(F)(F)F)c2)cc1, Cc1cc(Nc2cccc(C(F)(F)F)c2)nc2ccc(NC(=O)c3cncc(Br)c3)cc12 is higher in inhibition: -8% for the first, -6.38% for the second.

Compared with CC1=C(C(=O)Nc2ccc(C)cc2C)C(c2ccc[nH]2)n2ncnc2N1 (stereo unspecified), Cc1ccc2c(c1)c(=O)c1ccccc1n2CCCC(=O)Nc1ccc(Cl)cc1C is higher in inhibition: 23.4% for the first, 23.7% for the second.

First: CSc1nnc2c(n1)OC(c1cccc(O)c1Cl)Nc1ccccc1-2 (stereo unspecified)
Second: O=C(Nc1ccccc1F)c1nc(SCc2ccccc2F)ncc1Cl
The inhibition of the first is higher: 4.74% for the first, 1.24% for the second.

Compared with N#Cc1cc2c(=O)n3ccccc3nc2n(-c2nnc(SCc3ccccc3F)s2)c1=O, N#C/C(=C\c1ccccc1F)c1nc2ccccc2c(=O)[nH]1 is higher in inhibition: 2.98% for the first, 11.1% for the second.

Going from CCOC(=O)c1noc2nc(C)n(CC(=O)Nc3ccc(Br)cc3C)c(=O)c12 to Cc1cccc(C)c1NC(=O)Cn1c(=O)n(Cc2ccccc2Cl)c(=O)c2cccnc21, the inhibition falls from 23.3% to 21%.

First: COc1ccc(OC)c(-n2cnc3cc(C(=O)NCCc4ccccc4)ccc32)c1
Second: Cc1ccc(-n2c(=O)[nH]c3cc(C(=O)NCCc4ccccc4)ccc3c2=O)cc1
The inhibition of the first is lower: 4.83% for the first, 8.12% for the second.

Going from Cc1ccc(CN(C(=O)c2ccc([N+](=O)[O-])cc2)c2ccccn2)cc1 to Cc1ccc(-c2nc(S(=O)(=O)c3ccc(C)cc3)c(SCC(=O)c3ccccc3)o2)cc1, the inhibition falls from 11.9% to -14.1%.

Compared with O=C(Nc1ccc(Cl)c(C(F)(F)F)c1)c1cc2nc(-c3ccc4c(c3)OCO4)cc(C(F)(F)F)n2n1, COc1ccc(OCC(=O)Nc2ccc(Cl)c(-c3nc4ncccc4o3)c2)cc1 is higher in inhibition: 5.86% for the first, 14.3% for the second.

Compared with CCCn1ccc2c(OCC(=O)Nc3ccc(C(F)(F)F)cc3)cccc2c1=O, CCOc1ccc(CNC(=O)c2cnc3c(C)cccn3c2=O)cc1 is lower in inhibition: 25.7% for the first, 21.4% for the second.

Going from CCC(O)c1nc2ccccc2n1CCOc1cc(C)cc(C)c1 (stereo unspecified) to COc1cccc(NC(=O)CCc2nnc3n(CC(C)C)c(=O)c4ccccc4n23)c1, the inhibition rises from 3.67% to 6.26%.

First: CCOc1ccccc1C(=O)Nc1cc2c(cc1N1CCCCC1)n(C)c(=O)n2C
Second: COc1cc(NC(=O)C2CCN(c3nnc(C)c4c(C)n(-c5ccccc5)nc34)CC2)cc(OC)c1
The inhibition of the first is lower: -24.6% for the first, -2.88% for the second.

First: O=C(Nc1ccccc1F)c1oc2ccccc2c1NC(=O)C12CC3CC(CC(C3)C1)C2
Second: COC(=O)c1ccccc1NC(=O)c1oc2ccc3c(c2c1C)C(=O)CC(C)(C)O3
The inhibition of the first is higher: 4.81% for the first, -4.38% for the second.

Going from COc1ccc(NC(=O)CSc2n[nH]c(-c3ccccc3)n2)cc1Cl to COc1ccc(Cl)cc1NC(=O)CSc1nnc2[nH]c(=O)cc(-c3ccccc3)n12, the inhibition rises from -2.29% to -0.359%.

First: Cc1cc(C)cc(NS(=O)(=O)c2ccc3[nH]cc(C(=O)NCc4ccco4)c(=O)c3c2)c1
Second: Cc1ccc2[nH]c(=O)c3cc(C(=O)N(CCCOC(C)C)Cc4ccco4)sc3c2c1
The inhibition of the first is lower: -3.84% for the first, 10.6% for the second.

First: CCN(C(=O)CSc1nc2ccccc2n1Cc1ccccc1C#N)c1ccccc1
Second: O=C(NCc1nc2ccccc2n1Cc1ccccc1Cl)c1ccccc1
The inhibition of the first is higher: 11.5% for the first, -2.27% for the second.

Going from COc1ccc(-n2nc(C(=O)Nc3ccc(C)cn3)c3c4ccccc4n(C)c3c2=O)cc1Cl to COc1ccc(-c2nn(-c3ccc(F)cc3)c3c2cnc2ccc(F)cc23)cc1OC, the inhibition rises from -14.6% to 15.2%.

Compared with CCOC(=O)c1ccc(NC(=O)CSc2nnc(-c3ccncc3)n2-c2ccccc2)cc1, Cc1ccccc1NC(=O)CSC1=Nc2ccccc2C2=NC(Cc3ccccc3)C(=O)N12 (stereo unspecified) is higher in inhibition: -25.2% for the first, 7.68% for the second.

First: Cc1ccc(NC(=O)NC(C)c2c(-n3cccc3)sc(C)c2C)cc1F (stereo unspecified)
Second: Cc1ccc(Cl)cc1NC(=O)Nc1cn(CC(C)C)c(=O)c2ccccc12
The inhibition of the first is higher: -0.856% for the first, -26.4% for the second.

First: Cc1ccc2c(C)c(C(=O)NCC(c3ccc(Cl)cc3)N3CCOCC3)oc2c1 (stereo unspecified)
Second: CCC(Sc1ncc(S(=O)(=O)c2ccc(Cl)cc2)c(=O)[nH]1)C(=O)Nc1ccc(OC)cc1 (stereo unspecified)
The inhibition of the first is lower: -1.1% for the first, -0.699% for the second.

Compared with COCCn1c(SCC(=O)c2c(C)[nH]c3ccccc23)nc2cc(C(=O)NC(C)C)ccc2c1=O, COC(=O)c1ccc2c(=O)n3nc(Nc4cc(OC)ccc4OC)sc3nc2c1 is higher in inhibition: -4.65% for the first, 2.95% for the second.

Going from COc1cccc(CNC(=O)c2ccc3c(c2)N(Cc2ccc(F)cc2Cl)C(=O)c2ccccc2S3)c1 to Cc1ccccc1CN1C(=O)c2ccccc2Sc2ccc(C(=O)NCc3ccccc3)cc21, the inhibition falls from 23.7% to 0.619%.

First: CCCc1nn2c(=O)cc(COC(=O)C3CCCCC3)nc2s1
Second: COC(=O)c1cc2sc(Cl)cc2n1CC(=O)Nc1cc(OC)cc(OC)c1
The inhibition of the first is higher: 1.48% for the first, 0.811% for the second.

Compared with O=C1CN(C(=O)COc2ccccc2)C(c2ccc(F)cc2)c2cc(Br)ccc2N1 (stereo unspecified), CCc1cccc(NC(=O)c2cc3c(s2)-c2ccccc2OC3)c1 is lower in inhibition: 3.75% for the first, -0.774% for the second.

Cc1ccc(OCc2nc(C#N)c(NCCc3ccccc3)o2)cc1 was tested, and the inhibition was 8.01%.

CC(C)(C)Nc1c(N)c(=O)oc2ccccc12 was tested, and the inhibition was active: 33.7%.
For CN(CCC1CCOCC1)C(=O)c1cc(COc2c(F)cccc2F)on1, the inhibition was active: 30.5%.
For COc1cccc(C(=O)NC2CC3CCCC(C2)N3Cc2ccc(C)cc2)c1 (stereo unspecified), the inhibition was active: 77.3%.
For O=C(N/C=N/OCc1ccc(Cl)cc1Cl)NOCc1c(Cl)cccc1Cl, the inhibition was active: 30.7%.
In the case of Cc1cnc(C(=O)OCC(=O)NC(C)CCc2ccccc2)cn1 (stereo unspecified), the inhibition is reported as active: 34.1%.
CN1CCN(C(=O)c2ccccc2NC(=O)c2cccs2)CC1 was tested, and the inhibition was active: 36.5%.
CCCCn1c(CNC(=O)CCC)nc2ccccc21 was tested, and the inhibition was active: 33.7%.
With O=C(Nc1cccc(-c2cscn2)c1)C1CCN(Cc2ccsc2)CC1 the inhibition was active: 48.1%.
